According to the supplement of paper PMC12217912:
The other results are listed elsewhere or left out. The full chains were built here from the parent and the listed change. Inactive controls read about 0.05.

B1: TEV protease; numbered along this chain (parent)
chain: MGESLFKGPRDYNPISSSICHLTNESDGHTTSLYGIGFGPFIITNKHLFRRNNGTLVVQSLHGVFKVKDTTTLQQHLVDGRDMIIIRMPKDFPPFPQKLKFREPQREERICLVTTNFQTKSMSSMVSDTSCTFPSGDGIFWKHWIQTKDGQCGSPLVSTRDGFIVGIHSASNFTNTNNYFTSVPKNFMELLTNQEAQQWVSGWRLNADSVLWGGHKVFMVKPEEPFQPVKEATQL

Variants of: B1
Experiment: raw area under fraction-flipped curve 0-4 h after induction (AUC4h, not background-subtracted), DNA-recorder readout of cleavage of the substrate (dimensionless); higher = more cleavage of the substrate by the protease variant
Settings: temperature: 34 °C; time window: 0-4 h after rhamnose induction
Protocol: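 In vivo DNA recorder in E. coli TOP10(DE3) ΔrhaA at 34 °C. Each TEVp single-site mutant (parent TEVp 0) is paired with a single-site variant of the 7-mer TEVs (canonical ENLYFQ|S). The substrate sits between flexible linkers in a Bxb1-sfGFP-TEVs-SsrA fusion, so cleavage stabilises Bxb1 and speeds flipping of a recombination array, read by NGS. The value is the raw area under the fraction-flipped curve over 0-4 h after rhamnose induction (AUC4h), with ≥20 reads per time point. It is not background-subtracted; inactive controls average about 0.047.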
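Also: Bxb1 expression induced with 0.2% (w/v) L-rhamnose at OD600 near 0.5, cultures sampled hourly, flipped fraction per protease–substrate barcode pair counted by paired-end Illumina sequencing.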

Row | Variant | area with substrate ENLYFQA | area with substrate ENLYFQC | area with substrate ENLYFQG | area with substrate ENLYFQH | area with substrate ENLYFQI | area with substrate ENLYFQK | area with substrate ENLYFQL | area with substrate ENLYFQR | area with substrate ENLYFQS | area with substrate ENLYFQT | area with substrate ENLYFQW | area with substrate ENLYFQY | area with substrate ENLYFQN | area with substrate ENLYFQD | area with substrate ENLYFQM | area with substrate ENLYFQP | area with substrate ENLYFQQ | area with substrate ENLYFQV | area with substrate ENLYFQF
1 | MGESLFKGPRDYNPISISICHLTNESDGHTTSLYGIGFGPFIITNKHLFRRNNGTLVVQSLHGVFKVKDTTTLQQHLVDGRDMIIIRMPKDFPPFPQKLKFREPQREERICLVTTNFQTKSMSSMVSDTSCTFPSGDGIFWKHWIQTKDGQCGSPLVSTRDGFIVGIHSASNFTNTNNYFTSVPKNFMELLTNQEAQQWVSGWRLNADSVLWGGHKVFMVKPEEPFQPVKEATQL [S17I] | 0.0991 | 0.101 | 0.0886 | 0.0767 | 0.0495 | 0.0679 | 0.0559 | 0.0534 | 0.106 | 0.0466 | 0.0452 | 0.0706 | – | – | – | – | – | – | –
2 | MGESLFKGPRDYNPISSSICHLTNESDGHTTSLYGIGFGPFIITNKHLFRRNNGTLVVQSLHGVFKVKDTTTLQQHLVDGRDMIIIRMPKDFPPFPQKLKFREPQREERICLVTTNFQTKSMSSMVSDTSCTFPSGDGIFWKHWIQTKDGQCGSPLVSTRDGFIVGIHSASNFTHTNNYFTSVPKNFMELLTNQEAQQWVSGWRLNADSVLWGGHKVFMVKPEEPFQPVKEATQL [N175H] | 0.0712 | – | – | – | – | 0.0574 | – | – | 0.0959 | 0.0704 | 0.0635 | 0.06 | 0.0741 | – | – | – | – | – | –
3 | MGESLFKGPRDYNPISSSICHLTNESDGHTTSLYGIGFGPFIITNKHLFRRNNGTLVVQSLHGVFKVKDTTTLQQHLVDGRDMIIIRMPKDFPPFPQKLKFREPQREERICLVTTNFQTKSMSSMVSDTSCTFPSGDGIFWKHWIHTKDGQCGSPLVSTRDGFIVGIHSASNFTNTNNYFTSVPKNFMELLTNQEAQQWVSGWRLNADSVLWGGHKVFMVKPEEPFQPVKEATQL [Q146H] | 0.0869 | – | 0.0887 | 0.0665 | 0.057 | 0.0602 | 0.0718 | 0.0606 | 0.108 | 0.0386 | 0.0866 | 0.0799 | 0.0722 | 0.0671 | 0.0833 | 0.0587 | 0.0775 | 0.0582 | –
4 | MCESLFKGPRDYNPISSSICHLTNESDGHTTSLYGIGFGPFIITNKHLFRRNNGTLVVQSLHGVFKVKDTTTLQQHLVDGRDMIIIRMPKDFPPFPQKLKFREPQREERICLVTTNFQTKSMSSMVSDTSCTFPSGDGIFWKHWIQTKDGQCGSPLVSTRDGFIVGIHSASNFTNTNNYFTSVPKNFMELLTNQEAQQWVSGWRLNADSVLWGGHKVFMVKPEEPFQPVKEATQL [G2C] | 0.144 | – | – | – | – | – | 0.0464 | – | 0.124 | – | – | – | – | – | 0.141 | – | – | – | –
5 | MGESLFKGPRDYNPISSSICHLTNESDGHTTSLYGIGFGPFIITNKHLFRRNNGTLVVQSLHGVFKVKDTTTLQQHLVDGRDMIIIRMPKDFPPFPQKLKFREPQREERLCLVTTNFQTKSMSSMVSDTSCTFPSGDGIFWKHWIQTKDGQCGSPLVSTRDGFIVGIHSASNFTNTNNYFTSVPKNFMELLTNQEAQQWVSGWRLNADSVLWGGHKVFMVKPEEPFQPVKEATQL [I110L] | 0.0991 | 0.0993 | 0.104 | 0.0924 | 0.0505 | 0.0583 | 0.0757 | – | 0.119 | 0.0616 | 0.0666 | – | 0.0842 | – | 0.0942 | 0.0522 | – | 0.0703 | –
6 | MGESLFKGPRDYNPISSSICHLTNESDGHTTSLYGIGFGPFIITNKHLFRRNNGTLVVQSLHGVFKVKDTTTLQQHLVDGRAMIIIRMPKDFPPFPQKLKFREPQREERICLVTTNFQTKSMSSMVSDTSCTFPSGDGIFWKHWIQTKDGQCGSPLVSTRDGFIVGIHSASNFTNTNNYFTSVPKNFMELLTNQEAQQWVSGWRLNADSVLWGGHKVFMVKPEEPFQPVKEATQL [D82A] | 0.035 | 0.0576 | – | – | – | – | 0.0525 | 0.0436 | 0.0598 | – | – | 0.0487 | – | – | 0.067 | – | – | – | –
7 | MGESLFKGPRDYNPISSSICHLTNESDGHTTSLYGIGFGPFIITNKHLFRRNNGTLVVQSLHGVFKVKDTTTLQQHLVDGRDMIIIRMPKDFPPFPQKLKFREPQREERICLVTTNFQTKSMSSMVSDTSCTFPSGDGIFWKHWIQTKDGQCGSPLVSTRDGFIVGIHSASNFTNTNNYFTSVPKDFMELLTNQEAQQWVSGWRLNADSVLWGGHKVFMVKPEEPFQPVKEATQL [N186D] | 0.0973 | 0.129 | 0.121 | – | 0.0493 | 0.0666 | 0.0583 | 0.0596 | 0.098 | – | 0.0861 | 0.0745 | 0.0694 | – | 0.127 | 0.067 | 0.0575 | 0.0441 | –
8 | MGESLFKGPRDYNPISSSICHLTNESDGHTTSLYGIGFGPFIITNKHLFRRNNGTLVVQSLHGVFKVKDTTTLQQHLVDGRDMIIIRMPKDFPPFPQKLKFREPQREERICLVTTNFQTKSMSSMVSDTSCTFPSGDGIFWKHWIQTKDGQCGSPLVSNRDGFIVGIHSASNFTNTNNYFTSVPKNFMELLTNQEAQQWVSGWRLNADSVLWGGHKVFMVKPEEPFQPVKEATQL [T159N] | 0.0654 | – | 0.108 | – | 0.0246 | – | – | 0.064 | 0.104 | 0.0706 | 0.0603 | – | – | – | – | 0.053 | 0.0828 | – | –
9 | MGESLFKGPRDYNPISSSICHLTNESDGHTTSLVGIGFGPFIITNKHLFRRNNGTLVVQSLHGVFKVKDTTTLQQHLVDGRDMIIIRMPKDFPPFPQKLKFREPQREERICLVTTNFQTKSMSSMVSDTSCTFPSGDGIFWKHWIQTKDGQCGSPLVSTRDGFIVGIHSASNFTNTNNYFTSVPKNFMELLTNQEAQQWVSGWRLNADSVLWGGHKVFMVKPEEPFQPVKEATQL [Y34V] | 0.0805 | 0.112 | 0.0715 | – | 0.0562 | 0.0608 | 0.0602 | 0.0685 | 0.0847 | 0.0683 | 0.0662 | – | 0.0721 | – | 0.081 | 0.0683 | – | 0.06 | 0.0717
10 | MGESLFKGPRDYNPISSSICHLTNESDGHTTSLYGIGFGPFIITNKHLFRRNNGTLVVQSLHGVFKVKDTTTLQQHLVDGRDMIIIRMPKDFPPFPQKLKFREPQREERICLVTTNFQTKSMSSMVSDTSCTFPSGDGIFWKHWMQTKDGQCGSPLVSTRDGFIVGIHSASNFTNTNNYFTSVPKNFMELLTNQEAQQWVSGWRLNADSVLWGGHKVFMVKPEEPFQPVKEATQL [I145M] | 0.0672 | 0.0912 | – | 0.0789 | 0.0507 | 0.0435 | 0.0699 | 0.0494 | 0.0767 | 0.0652 | 0.0621 | 0.0575 | 0.0709 | 0.0691 | 0.0513 | – | 0.0781 | 0.0464 | 0.0688
